Hit rate of the full screen: of about 220,000 compounds, about 16,000 (7.3%) were called active. The inconclusive results got no clear call from the source; some entries with a clear call stand among them for comparison. The call rests on the fitted dose curve; in most records, active means well fitted inhibition curve with a large enough effect (not every such curve was filed as active); inconclusive means small, poorly fitted or top-dose-only effect, or another doubt; inactive means no such curve, though single readings can be large or run the other way. No potency is given beside an inconclusive call; the fits are too rough.
Biological target: Aldehyde dehydrogenase 1A1 (Homo sapiens) (UniProt P00352)
Assay: qHTS Assay for Inhibitors of Aldehyde Dehydrogenase 1 (ALDH1A1);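 on activity, negative = inhibition: plate controls were no enzyme wells and a reference inhibitor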
Conditions: Purified ALDH1A1, NADH fluorescence, propionaldehyde substrate; series mostly up to 75.3 µM
Potency means the concentration at half of the fitted maximal effect; tags describe the fitted curve by direction and shape.

UniProt P00352, sequence (P00352 whole entry, looked up): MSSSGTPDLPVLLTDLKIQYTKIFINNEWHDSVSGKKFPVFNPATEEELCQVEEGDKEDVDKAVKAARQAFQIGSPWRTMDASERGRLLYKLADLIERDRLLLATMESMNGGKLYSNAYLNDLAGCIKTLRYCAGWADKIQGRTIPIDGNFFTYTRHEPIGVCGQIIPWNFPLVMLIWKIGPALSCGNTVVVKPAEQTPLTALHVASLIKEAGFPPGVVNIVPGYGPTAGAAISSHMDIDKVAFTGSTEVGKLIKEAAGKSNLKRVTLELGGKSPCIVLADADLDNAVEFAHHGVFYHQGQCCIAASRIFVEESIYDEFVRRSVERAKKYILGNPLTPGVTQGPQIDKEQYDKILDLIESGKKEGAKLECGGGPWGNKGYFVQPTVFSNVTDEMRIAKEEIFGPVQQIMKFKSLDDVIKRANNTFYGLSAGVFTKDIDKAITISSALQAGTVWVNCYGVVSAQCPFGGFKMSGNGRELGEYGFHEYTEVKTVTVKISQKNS

Structure (SMILES)	Potency	activity, negative = inhibition
Cc1ccc(S(=O)(=O)n2nc(OC(=O)C3CCCCC3)cc2N)cc1	inconclusive [inhibitor, full curve]	
CC1CNCCN1S(=O)(=O)c1cccc2cnccc12 (stereo not drawn)	inactive	
CN(C)C(CNC(=S)Nc1ccccc1Cl)c1cccnc1 (stereo not drawn)	inactive	
O=[N+]([O-])c1cc2c(c(CSc3nnnn3-c3ccc(O)cc3)c1)OCOC2	inactive	
COC(=O)CCC(=O)OC1(C)C(=O)C=C2C=C(C3CC3)N(Cc3ccccc3)C=C2C1=O (stereo not drawn)		inactive: 16% [at 13.5 µM]
O=C(C[n+]1ccccc1)Nc1c(Cl)cc(Cl)cc1Cl	active: 7.94 µM	
CCNC(=O)c1ccc2c(c1)S(=O)(=O)c1ccccc1C2=O	inconclusive [inhibitor, partial curve]	
CCCC(=O)Nc1ccc2nc(SCC(=O)Nc3ccc(N4CCOCC4)c(Cl)c3)sc2c1	inconclusive [inhibitor, single point]	
O=C(CSc1cn(CCNC(=O)c2cccs2)c2ccccc12)NC1CCCCC1	inconclusive [inhibitor, partial curve]	
COc1ccc(C(O)(CCc2ccccc2)CCN2CCCCC2)cc1 (stereo not drawn)	active: 2.24 µM	
O=C(NCCc1ccccc1)c1ccc(CS(=O)(=O)c2ccc(Cl)cc2)o1	inconclusive [inhibitor, partial curve]	
CN(CCN1CCOCC1)Cc1nc(-c2ccc3c(c2)OCO3)no1	inconclusive [inhibitor, single point]	
N#Cc1c(NC(=S)NC(=O)Cc2cccs2)sc2c1CCCCC2	active: 3.98 µM	
O=C(NCC1CCCO1)C1CC1(c1ccccc1)c1ccccc1 (stereo not drawn)	inactive	
COCc1nnc(NC(=O)CCSc2ccccc2)s1	inconclusive [inhibitor, partial curve]	
CCn1nc(C)c(NC(=O)CCSc2nc(-c3ccco3)cc(C(F)(F)F)n2)c1C	active: 28.2 µM	
CN(C)c1ccc(/C=N/c2cc(-c3ccccc3)nn2-c2ccccc2)cc1	active: 7.94 µM	
Fc1ccc(C2=Nn3c(Cc4ccccc4F)nnc3SC2)cc1	inactive	
COc1cc(OC)c2c(-c3cccc(-c4ccc(OC(F)(F)F)cc4)c3)cc(=O)oc2c1	inconclusive [inhibitor, single point]	
COc1ccc(NS(=O)(=O)c2ccc(S(=O)(=O)N3CCCC3)cc2)cc1Cl	active: 12.6 µM	
CCOCCCNCC(=O)N1CCN(S(=O)(=O)c2ccc(C)cc2)CC1	inconclusive [inhibitor, partial curve]	
CCOC(=O)C1CC2CC(C1)CN(C(=O)C1CCCCC1)C2 (stereo not drawn)	inactive	
Clc1ccccc1Cn1nnc(-c2ccccc2)n1	inactive	
C=CCNc1ncnc2c1[nH]c1ccc(C)cc12	inconclusive [inhibitor, single point]	
COC(=O)C(c1ccc(OC)c(OC)c1)C1c2ccccc2C=C(C)N1C(=O)OC (stereo not drawn)	inactive	

Structure (SMILES)	Potency	activity, negative = inhibition
CN(CCNC(=O)c1ccc(N2CCCC2=O)cc1)CCc1ccccc1	inconclusive [inhibitor, single point]	
O=C(NNC(=O)c1cc2c(s1)CCCC2)c1ccccc1	inconclusive [inhibitor, full curve, poor fit]	
O=C(Nc1ccccc1)O/N=C1\CCCCC1c1ccc([N+](=O)[O-])cc1[N+](=O)[O-] (stereo not drawn)	inconclusive [inhibitor, single point]	
CCOC(=O)C1=NOC(Cn2cc(C(C)=O)c(=O)[nH]c2=O)C1 (stereo not drawn)	inconclusive [inhibitor, single point]	
CCc1c(O)nc(SCC(=O)Nc2ccccc2)n(C(C)CC)c1=O (stereo not drawn)	inconclusive [inhibitor, single point]	
Cc1noc(C)c1COC(=O)c1ccccc1NC(=O)c1ccco1	inconclusive [inhibitor, single point]	
COc1ccc(-c2nc3cnc(N(C)C)nc3n(Cc3cccs3)c2=O)cc1	inconclusive [inhibitor, partial curve]	
CC(C)=Cc1c(O)nc2ccccn2c1=O	inactive	
COc1ccc(NC(=O)COC(=O)CCCc2c[nH]c3ccccc23)cc1	active: 8.91 µM	
c1ccc(CNc2nc3ccccc3n2CCN2CCOCC2)nc1	inconclusive [inhibitor, single point]	
CN(C)c1cccc2c(C=C(C#N)C#N)ccc(N(C)C)c12	inconclusive [inhibitor, single point]	
CC1=CC2=NC(=O)CC(C)(C(=O)N(CC(=O)NC(C)C)C3CCCC3)N2C=C1 (stereo not drawn)	inconclusive [inhibitor, single point]	
Cc1ccccc1-c1noc(-c2ccccc2C(=O)NCc2ccco2)n1	active: 14.1 µM	
Cc1c(Cl)cnc(NC(=O)COC(=O)c2ccc3c(c2)OCO3)c1Cl	inconclusive [inhibitor, single point]	
CCOC(=O)CCc1nc2ccccc2[nH]c1=O	inconclusive [inhibitor, single point]	
CC(=O)N1CCN(Cc2nc3cc(NC(=O)c4ccc(Cl)cc4)ccc3n2C)CC1	inactive	
Nc1nc(-c2ccccc2)[nH]c(=O)c1N	inconclusive [inhibitor, partial curve]	
CCOCCCNC(=O)c1cc2c(=O)n3cccc(C)c3nc2n1C	inconclusive [inhibitor, partial curve]	
COC(=O)[C@@H]1C[C@@]2(O)[C@H](O)[C@H](O)[C@H](O)C[C@H]2N1Cc1ccc(N2CCN(C)CC2)cc1	active: 22.4 µM	
CC(=O)c1cc2c(cc1O)OC(C)(C)C=C2	inconclusive [inhibitor, partial curve, poor fit]	
CCOC(=O)c1sc(C)c(C(=O)NCCCN2CCOCC2)c1N	inconclusive [inhibitor, single point]	
CC(C)C(=O)n1nc(-c2cccnc2)nc1NCc1cccs1	inconclusive [inhibitor, single point]	
O=C(CSc1nc2c(c(=O)n1-c1ccccc1)SCC2)N1CCOCC1	inconclusive [inhibitor, single point]	
Cc1ccc(C(=O)OCC(=O)NCc2ccco2)cc1	inconclusive [inhibitor, single point]	
O=[N+]([O-])c1ccc(/C([O-])=C(/C(=S)NCc2ccco2)[n+]2ccccc2)cc1	active: 7.94 µM	

Structure (SMILES)	Potency	activity, negative = inhibition
COCCNC(=O)CCCCCN1C(=O)CCC1=O	inactive	
O=C(NC1CC2CCCC(C1)N2S(=O)(=O)c1ccccc1)c1ccco1 (stereo not drawn)	inconclusive [inhibitor, single point]	
O=C(CSC1CC(=O)N(CCc2ccccc2)C1=O)Nc1ccc(Br)cc1 (stereo not drawn)	inactive	
Cc1ccc(NC(=O)NCc2ccc3c(c2)OCO3)cc1	inactive	
Cc1c(CN2CCC(CO)(CCOc3ccccc3)CC2)[nH]c2ccc(Cl)cc12	inconclusive [inhibitor, single point]	
CCOc1ccc2nc(NS(C)(=O)=O)sc2c1	inconclusive [inhibitor, single point]	
COC(=O)CCC(=O)Nc1cc(S(=O)(=O)Nc2ccc(Cl)cc2)ccc1N1CCOCC1	active: 20 µM	
O=C(NP(=O)(N1CCOCC1)N1CCOCC1)C1=C(N2CCOCC2)/C(=C\c2ccccc2)CC1	active: 3.55 µM	
CCC1=NN2C(=N)/C(=C/c3c(C)nn(-c4ccccc4)c3Cl)C(=O)N=C2S1	inactive	
CC(C)Oc1ccc(C(=O)Nc2cccc3cccnc23)cc1	inactive	
N#C/C(=C\c1ccc(O)c([N+](=O)[O-])c1)c1nc2ccccc2s1	inconclusive [inhibitor, single point]	
Cc1nc(N2CCOCC2)c2nc(-c3ccccc3)n(C(C)CN(C)C)c2n1 (stereo not drawn)	inconclusive [inhibitor, single point]	
O=C(CSc1ccc2nnc(-c3ccccn3)n2n1)NCc1ccco1	inconclusive [inhibitor, single point]	
CCOc1c(O)ccc(/C=C2\SC(=S)NC2=O)c1[N+](=O)[O-]	inconclusive [inhibitor, single point]	
Cc1sc(=NC(=O)c2ccco2)n(C)c1-c1ccccc1	inconclusive [inhibitor, single point]	
O=C(CCCOc1ccc(Cl)cc1)Nc1ccc(N2CCOCC2)cc1	inactive	
C[C@H](NS(=O)(=O)c1ccc(Cl)c(Cl)c1)C(=O)OCc1cc(=O)n2cc(Br)ccc2n1	inconclusive [inhibitor, single point]	
CC(C)=CCN1CCN(Cc2cc(C(C)C)n[nH]2)CC1CCO (stereo not drawn)	inactive	
CC(=O)Nc1ccc(Oc2nc(C)cc(C)n2)cc1	inconclusive [inhibitor, single point]	
COc1ccc(C(=O)NCC(=O)OCc2csc(-c3ccccc3)n2)cc1	inconclusive [inhibitor, partial curve]	
O=C(O)/C(Cc1ccnc2ccccc12)=N\O		inactive: -3.41% [at 13.5 µM]
CC1=C(C#N)c2nc(N)c(C#N)c(C)c2/C1=C\c1ccc(C)cc1	inconclusive [inhibitor, partial curve]	
Cc1cc(N2CCN(C)CC2)nc2ccc(NC(=S)N3CCCCC3)cc12	inconclusive [inhibitor, partial curve]	
